{
  "source": "the BET-seq Pho4 binding data (Le et al. 2018)",
  "note": "This is one part of the list. Values were computed here from the reads of four pooled replicates and scatter widely.",
  "data": [
    {"biological_target": "T1, Pho4 (S. cerevisiae) (UniProt P07270)", "T1 sequence": "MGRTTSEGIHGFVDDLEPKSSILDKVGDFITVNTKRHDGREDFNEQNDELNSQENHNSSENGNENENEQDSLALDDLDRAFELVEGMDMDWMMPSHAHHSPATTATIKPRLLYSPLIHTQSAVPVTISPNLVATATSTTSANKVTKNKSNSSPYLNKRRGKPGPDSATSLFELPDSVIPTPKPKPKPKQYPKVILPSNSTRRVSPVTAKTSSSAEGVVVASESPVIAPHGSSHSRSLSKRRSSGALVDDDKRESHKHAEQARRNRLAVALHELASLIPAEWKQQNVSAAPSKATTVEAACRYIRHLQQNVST", "test": "relative binding free energy (BET-seq); higher = weaker binding", "conditions": "reference: library average", "units": {"relative binding free energy": "kcal/mol"}, "values": [
      {"sequence": "GGTGTCACGTGTGTCC", "relative binding free energy": 0.21},
      {"sequence": "CGTGACACGTGTAGTT", "relative binding free energy": 0.02},
      {"sequence": "TTTAGCACGTGACATA", "relative binding free energy": 0.11},
      {"sequence": "ATATGCACGTGACGGG", "relative binding free energy": 0.05},
      {"sequence": "AGTCTCACGTGGAGGG", "relative binding free energy": 0.26},
      {"sequence": "TATTCCACGTGTTGAA", "relative binding free energy": 0.1},
      {"sequence": "TTGGACACGTGTGATT", "relative binding free energy": 0.19},
      {"sequence": "ATTGGCACGTGTAATA", "relative binding free energy": 0},
      {"sequence": "GGTTACACGTGAGAGT", "relative binding free energy": 0.38},
      {"sequence": "TGGGCCACGTGAGTAA", "relative binding free energy": 0.22},
      {"sequence": "TTAAACACGTGTATTT", "relative binding free energy": 0.01},
      {"sequence": "GGGTTCACGTGGTTGT", "relative binding free energy": 0.36},
      {"sequence": "GTGTACACGTGTAGTC", "relative binding free energy": 0.03},
      {"sequence": "GCAGTCACGTGGAGGT", "relative binding free energy": -0.06},
      {"sequence": "TATAGCACGTGATGGG", "relative binding free energy": 0.1},
      {"sequence": "AGTTTCACGTGTTACG", "relative binding free energy": 0.28},
      {"sequence": "TATAGCACGTGATACG", "relative binding free energy": 0.07},
      {"sequence": "CAGTGCACGTGGGTTT", "relative binding free energy": -0.12},
      {"sequence": "AAGGTCACGTGGCGGG", "relative binding free energy": 0.02},
      {"sequence": "CAGCGCACGTGGGGGT", "relative binding free energy": -0.28},
      {"sequence": "CTAGGCACGTGTTTAT", "relative binding free energy": -0.25},
      {"sequence": "TTGTTCACGTGTAGCA", "relative binding free energy": 0.38},
      {"sequence": "AGGGTCACGTGGGAAA", "relative binding free energy": 0.04},
      {"sequence": "TGATGCACGTGGGATG", "relative binding free energy": 0.01},
      {"sequence": "ACGGGCACGTGTTTGG", "relative binding free energy": -0.13},
      {"sequence": "CTAGACACGTGGTATG", "relative binding free energy": -0.06},
      {"sequence": "GTGATCACGTGGGGTT", "relative binding free energy": -0.04},
      {"sequence": "GTCGGCACGTGTAGAG", "relative binding free energy": -0.01},
      {"sequence": "GTAATCACGTGTGAGT", "relative binding free energy": 0.14},
      {"sequence": "CGGAACACGTGCGGGT", "relative binding free energy": -0.01},
      {"sequence": "AGGGGCACGTGACGAG", "relative binding free energy": -0.09},
      {"sequence": "CGTGTCACGTGGTCTG", "relative binding free energy": -0.07},
      {"sequence": "GATGGCACGTGCGGTA", "relative binding free energy": -0.07},
      {"sequence": "TATCTCACGTGCTTGG", "relative binding free energy": 0.24},
      {"sequence": "TAGGGCACGTGGTGTC", "relative binding free energy": -0.23},
      {"sequence": "GGACGCACGTGTGCGG", "relative binding free energy": -0.02},
      {"sequence": "TTTCGCACGTGCTGGG", "relative binding free energy": -0.1},
      {"sequence": "GGTCACACGTGATTTG", "relative binding free energy": 0.25},
      {"sequence": "GCTTTCACGTGTGGAA", "relative binding free energy": 0.17},
      {"sequence": "TAGTACACGTGTCGTT", "relative binding free energy": 0},
      {"sequence": "ATTCGCACGTGTCGGT", "relative binding free energy": -0.02},
      {"sequence": "TGTCGCACGTGAGTGT", "relative binding free energy": 0.05},
      {"sequence": "ATGGTCACGTGATACT", "relative binding free energy": 0.11},
      {"sequence": "TGTGCCACGTGATGGA", "relative binding free energy": 0},
      {"sequence": "TGTCGCACGTGAGCTT", "relative binding free energy": 0.32},
      {"sequence": "TGTAGCACGTGGTTGG", "relative binding free energy": -0.07},
      {"sequence": "TCGAGCACGTGTTAGG", "relative binding free energy": -0.2},
      {"sequence": "GGGAACACGTGTGTGG", "relative binding free energy": 0.08},
      {"sequence": "AAGGCCACGTGGTGGA", "relative binding free energy": -0.11},
      {"sequence": "TGTATCACGTGTATGA", "relative binding free energy": 0.1},
      {"sequence": "GGGGACACGTGTGTGA", "relative binding free energy": 0.06},
      {"sequence": "GGATGCACGTGATTAG", "relative binding free energy": 0.12},
      {"sequence": "TTAATCACGTGCCGGG", "relative binding free energy": 0.17},
      {"sequence": "GATGACACGTGGTGTG", "relative binding free energy": -0.03},
      {"sequence": "GGCGGCACGTGACGCG", "relative binding free energy": 0.18},
      {"sequence": "TAGCTCACGTGTGTTA", "relative binding free energy": 0.28},
      {"sequence": "TTCTGCACGTGGCGAT", "relative binding free energy": -0.01},
      {"sequence": "TTTAACACGTGTCAGG", "relative binding free energy": 0.07},
      {"sequence": "GTTTGCACGTGTGATC", "relative binding free energy": 0.18},
      {"sequence": "GTTATCACGTGCATTT", "relative binding free energy": 0.15},
      {"sequence": "AGTGTCACGTGAAGAG", "relative binding free energy": 0.15},
      {"sequence": "TTTCCCACGTGGGGTG", "relative binding free energy": -0.15},
      {"sequence": "TAAATCACGTGCAGGG", "relative binding free energy": 0.13},
      {"sequence": "TATAGCACGTGTAGAA", "relative binding free energy": 0.1},
      {"sequence": "CTGGGCACGTGGTGCG", "relative binding free energy": -0.32},
      {"sequence": "AGTTGCACGTGGAGTC", "relative binding free energy": 0.15},
      {"sequence": "GGGATCACGTGTTGTT", "relative binding free energy": 0.26},
      {"sequence": "GATTGCACGTGGTAGG", "relative binding free energy": 0.07},
      {"sequence": "GGTGCCACGTGTCGGA", "relative binding free energy": 0.02},
      {"sequence": "ATCTTCACGTGGGAAA", "relative binding free energy": 0.29},
      {"sequence": "TCCAGCACGTGGGGGT", "relative binding free energy": -0.22},
      {"sequence": "GGTCCCACGTGTGTTT", "relative binding free energy": 0.12},
      {"sequence": "TTAAGCACGTGCGTAT", "relative binding free energy": -0.15},
      {"sequence": "TGGACCACGTGGTAGT", "relative binding free energy": -0.14},
      {"sequence": "CTTGGCACGTGATAGT", "relative binding free energy": 0.02},
      {"sequence": "GTTGTCACGTGGTAAC", "relative binding free energy": 0.14},
      {"sequence": "CTTTGCACGTGTTGGT", "relative binding free energy": 0.04},
      {"sequence": "TCGGGCACGTGGACGG", "relative binding free energy": 0.02},
      {"sequence": "GTTCACACGTGGTGGA", "relative binding free energy": 0.22},
      {"sequence": "CAGTTCACGTGAGGTA", "relative binding free energy": 0.36},
      {"sequence": "GGCTCCACGTGAGGGT", "relative binding free energy": 0.25},
      {"sequence": "TTTTACACGTGCTTCT", "relative binding free energy": 0.02},
      {"sequence": "GAGTGCACGTGGTGTT", "relative binding free energy": -0.04},
      {"sequence": "ATAGGCACGTGCTTAT", "relative binding free energy": -0.06},
      {"sequence": "TTTAGCACGTGGCTGG", "relative binding free energy": -0.13},
      {"sequence": "GTGTGCACGTGATGTT", "relative binding free energy": 0.19},
      {"sequence": "GCGGACACGTGGGAAG", "relative binding free energy": -0.02},
      {"sequence": "AGTGACACGTGTATTG", "relative binding free energy": 0},
      {"sequence": "TTGTGCACGTGAGCAT", "relative binding free energy": 0.15},
      {"sequence": "TTTTGCACGTGGATCG", "relative binding free energy": 0.02},
      {"sequence": "AAGAGCACGTGGGGCT", "relative binding free energy": -0.22},
      {"sequence": "TTATTCACGTGCGTCT", "relative binding free energy": 0.14},
      {"sequence": "TTGGTCACGTGATGGA", "relative binding free energy": 0.32},
      {"sequence": "ATTACCACGTGGAGGT", "relative binding free energy": -0.03},
      {"sequence": "GGATACACGTGGGTGG", "relative binding free energy": 0.07},
      {"sequence": "TAAATCACGTGGTGGG", "relative binding free energy": 0.16},
      {"sequence": "TGCTTCACGTGGTTCG", "relative binding free energy": 0.24},
      {"sequence": "TTTAACACGTGTGGGT", "relative binding free energy": 0.11},
      {"sequence": "GGGTTCACGTGTGTCG", "relative binding free energy": 0.4},
      {"sequence": "CTGACCACGTGGGTGG", "relative binding free energy": -0.2},
      {"sequence": "ATAGACACGTGTATTA", "relative binding free energy": -0.01},
      {"sequence": "CTAGGCACGTGAGTTT", "relative binding free energy": 0.07},
      {"sequence": "GGCGTCACGTGTATAG", "relative binding free energy": 0.25},
      {"sequence": "AGGACCACGTGTGTTG", "relative binding free energy": -0.03},
      {"sequence": "TGTTGCACGTGGAAGA", "relative binding free energy": 0.1},
      {"sequence": "TTAGCCACGTGAGGAT", "relative binding free energy": 0.11},
      {"sequence": "TGGATCACGTGAAGGT", "relative binding free energy": 0.37},
      {"sequence": "GTACTCACGTGGGATG", "relative binding free energy": 0.11},
      {"sequence": "TGTCACACGTGTGAAG", "relative binding free energy": 0.18},
      {"sequence": "TTAGGCACGTGTAATC", "relative binding free energy": 0.13},
      {"sequence": "TGGGTCACGTGCTATA", "relative binding free energy": 0.09},
      {"sequence": "GTCATCACGTGGAGGT", "relative binding free energy": -0.01},
      {"sequence": "TACAGCACGTGGTGTG", "relative binding free energy": -0.29},
      {"sequence": "GGTATCACGTGGAGGG", "relative binding free energy": 0.11},
      {"sequence": "TGTGACACGTGATTTT", "relative binding free energy": 0.21}
    ]}
  ]
}
